Reference: PubChem BioAssay AID1768 (National Center for Advancing Translational Sciences (NCATS), 2009)
The whole screen tested about 270,000 compounds, of which about 620 (0.23%) were called active. The shares of active, inactive and inconclusive entries below differ from those in the screen. Calls follow the shape of the dose curve; as a rule, active = well fitted inhibition curve with a large enough effect in the polarisation, with a control signal flat (not every such curve was filed as active); inconclusive = small, poorly fitted or top-dose-only effect, or effect the other way, or a change in a side signal; inactive = no such curve, though single readings can be large or run the other way; the % refers to the polarisation. Potencies beside an inconclusive call are fits to weak or partial responses and may not hold up. “Side channel” marks fits to a control or component signal instead of the main read-out.

Molecular target: Menin (Homo sapiens) (UniProt O00255)
Assay: qHTS Assay for Inhibitors Targeting the Menin-MLL Interaction in MLL Related Leukemias: Competition With Texas Red Labeled MLL-derived Mutant Peptide; as to FP activity change, negative = inhibition: % of control where 0% means no effect
Conditions: fluorescence polarization; FP activity change, negative = inhibition: at 61.6 µM (top of the series)
Potency is read from the fitted curve at half-maximal effect; tags tell the direction and shape of the fitted curve or compound fluorescence and quenching.

Sequence of UniProt O00255 (O00255 whole entry, looked up): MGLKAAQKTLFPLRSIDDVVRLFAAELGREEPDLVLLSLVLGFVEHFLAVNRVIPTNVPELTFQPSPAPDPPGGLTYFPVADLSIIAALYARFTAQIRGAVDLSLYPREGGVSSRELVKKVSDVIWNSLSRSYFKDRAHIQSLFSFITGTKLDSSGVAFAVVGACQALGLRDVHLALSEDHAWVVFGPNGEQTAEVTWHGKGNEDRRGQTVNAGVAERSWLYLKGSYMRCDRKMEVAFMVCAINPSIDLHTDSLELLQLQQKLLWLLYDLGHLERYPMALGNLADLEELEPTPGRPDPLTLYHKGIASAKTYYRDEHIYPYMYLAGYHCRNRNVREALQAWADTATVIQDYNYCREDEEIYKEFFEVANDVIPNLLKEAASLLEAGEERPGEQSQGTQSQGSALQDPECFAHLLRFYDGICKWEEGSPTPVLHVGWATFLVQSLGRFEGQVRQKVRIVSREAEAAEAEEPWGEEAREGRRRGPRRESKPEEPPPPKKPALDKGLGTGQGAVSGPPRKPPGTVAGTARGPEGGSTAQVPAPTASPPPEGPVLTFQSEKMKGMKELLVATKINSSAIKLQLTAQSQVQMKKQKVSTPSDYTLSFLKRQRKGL

Potency, inconclusive:
CCc1ccc(C2c3[nH]c4ccccc4c3CCN2C(=O)CN2CCN(CC)CC2)cc1 (stereo not given) 7.08 µM [inhibitor, partial curve], O=C1NC(=Nc2ccc3ccccc3c2)S/C1=C/c1ccco1 10 µM [quencher, side channel, partial curve], O=C1C(c2cc(=O)c3ccccc3[nH]2)=C(O)c2ccccc21 12.6 µM [quencher, side channel, partial curve], Cn1c(=O)c(C(=O)NNC(=O)c2ccccc2Cl)c(O)c2ccccc21 39.8 µM [quencher, side channel, single point], O=C(COc1ccccc1)n1nc(-c2ccc(Cl)cc2)nc1NCc1ccco1 39.8 µM [inhibitor, single point], O=C(Nc1sc2c(c1C(=O)O)CCC2)c1ccc(F)cc1 5.01 µM [quencher, side channel, single point], O=C(O)C1Nc2c(C(=O)N3CCOCC3)cccc2C2C=CCC12 (stereo not given) 17.8 µM [fluorescent, side channel, single point], C=CCNC(=O)c1cc2c(C(F)(F)F)nn(C)c2s1 11.2 µM [inhibitor, partial curve], Cc1ccc(S(=O)(=O)Nc2ccc(NS(=O)(=O)c3ccc(C)cc3)c3ncccc23)cc1 15.8 µM [quencher, side channel, partial curve], N#C/C(=C(/O)c1ccco1)c1nc2ccccc2s1 28.2 µM [quencher, partial curve], CCOc1cc(/C=C2/SC(=S)N(Cc3ccccc3)C2=O)ccc1O 25.1 µM [fluorescent, side channel, partial curve], COC(=O)C1=C(C)N=c2s/c(=C3\C(=O)Nc4ccccc43)c(=O)n2C1c1ccccc1 (stereo not given) 20 µM [quencher, side channel, single point], Fc1ccc(/C=C\c2nccc3c2[nH]c2ccccc23)cc1 14.1 µM [quencher, side channel, partial curve], N#CC(=C(\N)Sc1ccccc1N)/C(C#N)=C(/N)Sc1ccccc1N 25.1 µM [quencher, side channel, single point], CC(C(=O)O)N1C(=O)/C(=C/C=C/c2ccco2)SC1=S (stereo not given) 20 µM [fluorescent, side channel, partial curve], COc1cccc(-n2c(SCC(=O)c3c[nH]c4ccccc34)nc3ccccc3c2=O)c1 25.1 µM [inhibitor, single point], CC1CCN(c2nc3c(c(=O)[nH]c(=O)n3C)n2CC(C)CSc2nnnn2-c2ccccc2)CC1 (stereo not given) 17.8 µM [inhibitor, single point], COc1ccc(NC(=O)COC(=O)CCc2cc(OC)c(OC)c(OC)c2)c([N+](=O)[O-])c1 6.31 µM [inhibitor, full curve], Cc1ccc2oc(-c3cccc(NC(=S)NC(=O)/C=C/c4ccco4)c3)nc2c1 22.4 µM [quencher, side channel, partial curve], O=C(COC(=O)c1ccccc1[N+](=O)[O-])NNC(=O)c1cccs1 8.91 µM [inhibitor, partial curve], Cc1ccc(NC(=O)c2ccccc2)cc1-n1cnnn1 10 µM [quencher, side channel, partial curve], O=C(Nc1ccc(F)cc1)c1cccnc1NCCc1ccccc1 20 µM [quencher, side channel, partial curve], CC(C)NC(=O)Cn1cc(C(=O)COc2ccccc2)c2ccccc21 12.6 µM [fluorescent, side channel, partial curve], CCOC(=O)c1ccc(NC(=O)CSc2nc(N3CCOCC3)nc(N3CCOCC3)n2)cc1 28.2 µM [fluorescent, side channel, single point], O=Cc1ccc(O)c2ncccc12 15.8 µM [quencher, side channel, partial curve], CSc1ccccc1C(=O)N1CCN(c2cccc(Cl)c2)CC1 12.6 µM [fluorescent, side channel, partial curve], C#C[C@]1(O)CC[C@H]2[C@@H]3CCC4=CC(=O)CC[C@@H]4[C@H]3CC[C@@]21CC 31.6 µM [fluorescent, side channel, single point], CCc1ccc(C(=O)COC(=O)C(Cc2ccccc2)NC(=O)C2CCC(C)CC2)cc1 (stereo not given) 5.01 µM [fluorescent, side channel, full curve, poor fit], c1ccc(-c2nnc(OCCN3CCOCC3)c3ccccc23)cc1 25.1 µM [fluorescent, side channel, single point], C=CCSc1nnc(N2C(=O)C(O)=C(C(=O)c3ccco3)C2c2ccccc2F)s1 (stereo not given) 17.8 µM [quencher, partial curve], O=C1c2ccccc2C(=O)N1CCSc1nnc(-c2ccco2)n1Cc1ccccc1 20 µM [fluorescent, side channel, single point], Cc1ccc(NC(=O)c2cc(=O)c3ccccc3o2)cc1 39.8 µM [fluorescent, side channel, single point], CC(=O)c1sc(NC(=O)COc2ccc([N+](=O)[O-])cc2)nc1C 25.1 µM [quencher, side channel, partial curve], CCSc1nsc(NC(=O)Nc2cccc(F)c2)n1 15.8 µM [quencher, side channel, partial curve]

FP activity change, negative = inhibition, inactive:
CCCN[C@@H](C)C(=O)Nc1ccccc1C -10.9% [at 24.8 µM]
